Results published in paper PMC4256259.
No constants are given. Whether binding was seen depends on the method and setting. Binding seen in cells or lysates may run through a third protein. Some results given as binding are weak or reduced against the parent protein; the word gives no strength. Tags and fused reporters may be left off the sequences shown.

T1: Tsr1-GFP (S. cerevisiae) (UniProt Q07381)
T1 sequence: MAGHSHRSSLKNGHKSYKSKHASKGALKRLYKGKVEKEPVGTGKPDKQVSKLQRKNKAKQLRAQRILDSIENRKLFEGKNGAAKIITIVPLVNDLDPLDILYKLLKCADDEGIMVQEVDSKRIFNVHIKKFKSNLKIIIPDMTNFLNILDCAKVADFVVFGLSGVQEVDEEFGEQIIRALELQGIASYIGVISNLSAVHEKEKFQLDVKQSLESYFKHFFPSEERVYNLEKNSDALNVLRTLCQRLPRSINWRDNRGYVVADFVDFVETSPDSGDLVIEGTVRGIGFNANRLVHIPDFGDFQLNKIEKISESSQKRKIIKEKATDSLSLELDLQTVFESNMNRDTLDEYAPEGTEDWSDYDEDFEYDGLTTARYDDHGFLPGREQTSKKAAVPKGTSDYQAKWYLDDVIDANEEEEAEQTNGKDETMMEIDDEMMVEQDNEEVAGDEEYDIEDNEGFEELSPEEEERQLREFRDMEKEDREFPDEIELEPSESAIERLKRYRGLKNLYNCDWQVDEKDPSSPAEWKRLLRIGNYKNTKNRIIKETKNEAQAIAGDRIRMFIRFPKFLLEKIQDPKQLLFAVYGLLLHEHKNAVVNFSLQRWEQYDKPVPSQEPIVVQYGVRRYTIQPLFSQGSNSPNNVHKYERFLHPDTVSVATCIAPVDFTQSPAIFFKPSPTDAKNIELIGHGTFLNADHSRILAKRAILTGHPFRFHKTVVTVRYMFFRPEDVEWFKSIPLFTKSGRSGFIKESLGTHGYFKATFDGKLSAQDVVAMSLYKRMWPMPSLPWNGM

T2: Ltv1-GFP (S. cerevisiae) (UniProt P34078)
T2 sequence: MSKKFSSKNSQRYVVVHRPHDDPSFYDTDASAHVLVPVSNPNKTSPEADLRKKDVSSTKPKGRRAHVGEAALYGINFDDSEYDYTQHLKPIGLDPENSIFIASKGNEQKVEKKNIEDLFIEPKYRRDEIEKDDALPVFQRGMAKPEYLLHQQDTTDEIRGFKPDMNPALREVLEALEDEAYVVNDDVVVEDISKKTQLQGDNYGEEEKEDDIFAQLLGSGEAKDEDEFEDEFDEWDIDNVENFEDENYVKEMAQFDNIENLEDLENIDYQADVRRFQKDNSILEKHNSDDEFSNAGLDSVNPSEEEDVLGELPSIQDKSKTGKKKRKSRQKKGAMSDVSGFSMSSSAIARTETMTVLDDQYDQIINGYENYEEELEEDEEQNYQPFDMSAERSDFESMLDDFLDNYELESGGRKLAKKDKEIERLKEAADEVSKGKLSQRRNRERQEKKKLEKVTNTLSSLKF

T3: Ssf1-GFP (S. cerevisiae) (UniProt P38789)
T3 sequence: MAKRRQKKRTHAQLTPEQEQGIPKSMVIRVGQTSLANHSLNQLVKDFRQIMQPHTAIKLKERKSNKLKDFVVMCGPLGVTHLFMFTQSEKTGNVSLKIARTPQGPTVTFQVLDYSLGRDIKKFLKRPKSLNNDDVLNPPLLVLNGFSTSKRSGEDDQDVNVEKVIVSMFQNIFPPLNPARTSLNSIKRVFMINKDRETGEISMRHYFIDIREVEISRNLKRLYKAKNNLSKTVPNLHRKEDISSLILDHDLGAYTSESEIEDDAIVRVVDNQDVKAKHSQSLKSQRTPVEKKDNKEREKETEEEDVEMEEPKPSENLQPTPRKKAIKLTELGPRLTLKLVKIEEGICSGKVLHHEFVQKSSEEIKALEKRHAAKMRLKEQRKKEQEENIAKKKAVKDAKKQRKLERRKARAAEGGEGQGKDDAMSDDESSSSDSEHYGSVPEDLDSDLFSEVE

T4: Rix1-GFP (S. cerevisiae) (UniProt P38883)
T4 sequence: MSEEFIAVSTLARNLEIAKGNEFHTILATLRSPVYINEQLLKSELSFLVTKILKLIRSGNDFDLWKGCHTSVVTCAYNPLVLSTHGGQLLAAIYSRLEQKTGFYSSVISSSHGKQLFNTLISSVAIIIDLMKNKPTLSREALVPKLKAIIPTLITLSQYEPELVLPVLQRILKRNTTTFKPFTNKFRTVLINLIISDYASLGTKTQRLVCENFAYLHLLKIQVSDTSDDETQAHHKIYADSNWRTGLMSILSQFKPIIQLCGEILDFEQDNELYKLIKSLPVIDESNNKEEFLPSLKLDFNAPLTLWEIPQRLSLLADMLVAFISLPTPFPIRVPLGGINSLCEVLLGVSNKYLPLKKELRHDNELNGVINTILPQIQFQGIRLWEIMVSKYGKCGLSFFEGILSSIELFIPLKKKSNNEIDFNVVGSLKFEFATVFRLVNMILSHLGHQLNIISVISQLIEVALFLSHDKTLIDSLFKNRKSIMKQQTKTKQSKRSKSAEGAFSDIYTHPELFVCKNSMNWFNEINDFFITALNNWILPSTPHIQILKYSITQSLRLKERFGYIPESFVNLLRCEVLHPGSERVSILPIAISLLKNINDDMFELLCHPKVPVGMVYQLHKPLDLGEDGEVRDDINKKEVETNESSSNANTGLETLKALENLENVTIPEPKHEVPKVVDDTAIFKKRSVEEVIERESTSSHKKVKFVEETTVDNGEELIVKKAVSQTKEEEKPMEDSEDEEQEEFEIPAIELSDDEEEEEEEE

T5: Nob1-GFP (S. cerevisiae) (UniProt Q08444)
T5 sequence: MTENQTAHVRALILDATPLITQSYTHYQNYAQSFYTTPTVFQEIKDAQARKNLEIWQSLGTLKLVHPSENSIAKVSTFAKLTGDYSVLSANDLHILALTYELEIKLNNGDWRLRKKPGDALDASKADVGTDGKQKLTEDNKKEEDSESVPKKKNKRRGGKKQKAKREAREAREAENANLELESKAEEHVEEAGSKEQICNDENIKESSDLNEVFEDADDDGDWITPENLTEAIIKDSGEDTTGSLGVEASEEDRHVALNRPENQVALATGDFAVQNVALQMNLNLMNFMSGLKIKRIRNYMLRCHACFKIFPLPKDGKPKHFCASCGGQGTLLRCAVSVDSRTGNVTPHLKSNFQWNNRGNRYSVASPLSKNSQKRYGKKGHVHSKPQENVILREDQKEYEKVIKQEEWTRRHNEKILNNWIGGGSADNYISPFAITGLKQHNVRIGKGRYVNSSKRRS


Key:
Tsr1-GFP (S. cerevisiae) = target: T1, Tsr1-GFP (S. cerevisiae); assay: co-IP; Tsr1-GFP purified with GFP-Trap from yeast lysates, in the presence and absence of Rrp12 (GAL::HA-rrp12 depletion); Mex67 detected by Western blot
Ltv1-GFP (S. cerevisiae) [1] = target: T2, Ltv1-GFP (S. cerevisiae); assay: co-IP; as a1, with RNase A in the cell lysates
Ssf1-GFP (S. cerevisiae) = target: T3, Ssf1-GFP (S. cerevisiae); assay: co-IP; GFP-tagged baits purified with GFP-Trap from yeast cell lysates in IP buffer (20 mM Tris-HCl pH 7.5, 5 mM MgCl2, 150 mM potassium acetate, 1 mM DTT, 0.2% Triton X-100); no RNase A; endogenous Rrp12 detected by Western blot
Ltv1-GFP (S. cerevisiae) [2] = target: T2, Ltv1-GFP (S. cerevisiae); assay: as above
Rix1-GFP (S. cerevisiae) = target: T4, Rix1-GFP (S. cerevisiae); assay: as above
Nob1-GFP (S. cerevisiae) = target: T5, Nob1-GFP (S. cerevisiae); assay: as above

Binder	binding (Tsr1-GFP (S. cerevisiae))	binding (Ltv1-GFP (S. cerevisiae) [1])	binding (Ssf1-GFP (S. cerevisiae))	binding (Ltv1-GFP (S. cerevisiae) [2])	binding (Rix1-GFP (S. cerevisiae))	binding (Nob1-GFP (S. cerevisiae))
Mex67 (endogenous) (protein, UniProt Q99257 1-599) MSGFHNVGNINMMAQQQMQQNRIKISVRNWQNATMNDLINFISRNARVAVYDAHVEGPLVIGYVNSKAEAESLMKWNGVRFAGSNLKFELLDNNGASAGTSDTISFLRGVLLKRYDPQTKLLNLGALHSDPELIQKGVFSSISTQSKMFPAMMKLASTEKSLIVESVNLADNQLKDISAISTLAQTFPNLKNLCLANNQIFRFRSLEVWKNKFKDLRELLMTNNPITTDKLYRTEMLRLFPKLVVLDNVIVRDEQKLQTVYSLPMKIQQFFFENDALGQSSTDFATNFLNLWDNNREQLLNLYSPQSQFSVSVDSTIPPSTVTDSDQTPAFGYYMSSSRNISKVSSEKSIQQRLSIGQESINSIFKTLPKTKHHLQEQPNEYSMETISYPQINGFVITLHGFFEETGKPELESNKKTGKNNYQKNRRYNHGYNSTSNNKLSKKSFDRTWVIVPMNNSVIIASDLLTVRAYSTGAWKTASIAIAQPPQQQASVLPQVASMNPNITTPPQPQPSVVPGGMSIPGAPQGAMVMAPTLQLPPDVQSRLNPVQLELLNKLHLETKLNAEYTFMLAEQSNWNYEVAIKGFQSSMNGIPREAFVQF	binds	–	–	–	–	–
Rrp12 (endogenous) (protein, UniProt Q12754 1-1228) MDQDKVAFLLELEDKLAKIRSQVNSKLENQKHIAIILTAVEENIAGQATNDVSKNIVNYIISFMSLLDQAVDPSTHEIKDIQLASSSTYLLDLIFHYSPKVLLRSKFSEILTKIAPCITAEKANAPLIRAAIGCLESLLIAQDAQAWNNTYDLNVTPKRGLQGILELSLDVRPKVRKRALDAVHAVLLNPPVAPTAEHVAAVFVADFCDKQLAGILNDLSNLSNKQLKAQKTKEDINASVMRSLRLITSVVSTGQWPSSQIEPLCDVLLGVTKSSEQYLVSASFECFESMFKTMAETTISSGLAENKYLRVLDTIFALKPSNVDTLLTKSWIAVVIKGMSTYATHQPLKALRKIPGVFHIMCTYLASETPEVYQAASQCLISILSESVKDDLLLYTPSVDEKVFKNVDEIISQIAKTFIDFLSIRYSHCSREILKILVAAFNKFRYRSNPHFLKSLKIVDTWRVNEEQFMDLRNEIELVIGASISAMGPEMILAEAPLNLDNPSSERPGRAWLLPLIRDYTKNANLATFQNELAPYIKSFQSKFDKVPEESIQLRVFQTIVDQIWSTLPRFCELPMDLRESFTDEFASELSSLLYSEVELRTTICHALKVLAESNVSYAEESSSHNVLLLQRFPISEAQKNIEYLSTKSTNLLAVLFNVYTQTTPNARSYILETIDQYLKITSKEDLEKTFNNVCGLLKNSMNEESSGNVNKEKKKPQLTATLLDLIICMITYLPVSSYSALFSMFSLTVNSADALIQKRAYRIITKLSELKSGSTAVAQFISDIENVMVDSASSVQTSAKAARLTAIKTIVELLPLDHLDFIVRTVAEVILSTKDVNEKSRETAFDTLICMGRKMNEPNGIIKLFQIPGYDPTTPDQSSSISEFFKIISAGLIGESQHMVSSSITGYACLVFEFKNELDSGILMDIYDTIELYLTSNSREIVKSAIGFTKVCVLGLPEELMRPKVPELLLKLLRWSHEHTGHFKAKVKHIIERLIRRFGYDYIEANFPEEDRRLLTNIRKMRNRNKRKDEEVTTGVSDVAATKGSRFMSAFDEAVYGSDEENDNGSDQEENVAGGKMKNGAKQFIVESGDNPLDLLDSQTLAHISSTRPKKFNKNQNRARFNDDAFNFDSEGKLVVKGQPKPSTNVDDPLSAVTSGINAYLEAVKSGPVRGQRNKLKFRKNGKDSDEFGDDDDGEKDSRLMRGRVNQGNKIGKHNKKGPKFKSRKKL	–	binds	no binding	binds	no binding	no binding
